Results: article PMC4336329 (PLoS ONE, 2015)
About 14,000 (4.5%) of roughly 310,000 compounds showed an effect of 50% or more. Effects have a minus sign here. The list shows a part of the results.

Each compound was assayed against human ether-à-go-go-related gene (hERG) potassium channel (human, UniProt Q12809) (assay: primary screen, population patch clamp on CHO cells stably expressing hERG).
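Note: peak tail current of the secondary pulse compared with the same well before compound.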

human ether-à-go-go-related gene (hERG) potassium channel, sequence (Q12809 whole entry, looked up): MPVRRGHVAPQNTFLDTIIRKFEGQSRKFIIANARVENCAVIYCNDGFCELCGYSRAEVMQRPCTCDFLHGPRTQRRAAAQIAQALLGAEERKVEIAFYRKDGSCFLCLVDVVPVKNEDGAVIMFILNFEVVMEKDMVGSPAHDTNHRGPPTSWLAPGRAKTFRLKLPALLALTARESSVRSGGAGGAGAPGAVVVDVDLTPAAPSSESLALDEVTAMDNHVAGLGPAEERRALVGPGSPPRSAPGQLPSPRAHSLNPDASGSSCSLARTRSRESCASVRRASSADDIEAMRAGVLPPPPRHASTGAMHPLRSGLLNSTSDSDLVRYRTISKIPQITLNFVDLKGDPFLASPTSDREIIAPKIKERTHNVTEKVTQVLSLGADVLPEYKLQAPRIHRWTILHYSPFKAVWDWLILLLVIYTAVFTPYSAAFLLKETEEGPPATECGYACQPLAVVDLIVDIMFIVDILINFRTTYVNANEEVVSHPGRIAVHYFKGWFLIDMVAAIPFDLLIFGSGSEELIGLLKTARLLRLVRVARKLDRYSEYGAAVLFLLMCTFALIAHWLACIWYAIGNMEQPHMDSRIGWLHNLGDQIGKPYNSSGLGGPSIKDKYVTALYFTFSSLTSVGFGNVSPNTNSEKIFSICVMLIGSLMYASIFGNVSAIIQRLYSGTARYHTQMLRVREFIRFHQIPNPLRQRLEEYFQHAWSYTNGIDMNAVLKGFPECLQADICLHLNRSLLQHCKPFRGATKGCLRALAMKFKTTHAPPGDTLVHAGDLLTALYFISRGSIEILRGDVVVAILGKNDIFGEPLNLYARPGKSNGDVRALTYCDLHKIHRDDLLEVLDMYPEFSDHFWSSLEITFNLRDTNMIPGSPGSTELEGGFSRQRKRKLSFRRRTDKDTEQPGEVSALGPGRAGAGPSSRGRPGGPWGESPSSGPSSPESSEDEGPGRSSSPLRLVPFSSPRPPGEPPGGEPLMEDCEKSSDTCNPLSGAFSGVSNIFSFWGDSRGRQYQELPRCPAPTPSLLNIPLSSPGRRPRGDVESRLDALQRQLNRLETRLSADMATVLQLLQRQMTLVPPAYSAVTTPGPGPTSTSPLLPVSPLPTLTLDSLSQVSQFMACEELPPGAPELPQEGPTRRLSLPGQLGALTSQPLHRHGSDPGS

SMILES	hERG current change (%, negative = inhibition) at 10uM
CC1(C)OC(C)(C)/C(=C/Nc2ccc(O)cc2)C1=O	1.89%
Cl.OCCCCNCc1ccc(OCc2ccc(Cl)cc2)cc1	-38.8%
O=C(NCc1ccccc1)c1cccc(S(=O)(=O)N2CCCCC2)c1	-52.5%
CCOc1ccccc1CN1CCN(C2CCC2)CC1CCO (stereo not shown)	27.4%
O=C(CCS(=O)(=O)Cc1ccccc1F)N1CCc2ccccc2C1	3.01%
O=C1Nc2ccc(S(=O)(=O)NCCCO)c3cccc1c23	17.7%
CN(C)C(=O)c1ccc(NC(=O)c2cccnc2)cc1	9.88%
CC(=O)CSc1nc2c(c(=O)[nH]c(=O)n2C)n1CCCc1ccccc1	-38.3%
COc1ccc(C2(C#N)CCC(=O)N2c2ccccc2)cc1 (stereo not shown)	5.87%
COc1ccc(S(=O)(=O)O/N=C2\CCCc3ccccc32)cc1	-2.62%
N#CCC(=O)N/N=C\c1cc(Br)ccc1OC/C=C/c1ccccc1	14.8%
COc1ccc(-n2nc(C(=O)Nc3ccc4c(c3)OCO4)c3ccccc3c2=O)cc1	7.44%
CSCCC(NS(=O)(=O)c1ccc(F)cc1)C(=O)NCc1ccc(S(N)(=O)=O)cc1 (stereo not shown)	9.36%
C=C(C)c1cccc(C(C)(C)NC(=O)NC2CC(C)(C)NC(C)(C)C2)c1	9.77%
COC(=O)c1[nH]c2ccc(Cl)cc2c1NC(=O)CCN1CCOCC1	2.71%
CCN(CC1CCCO1)C(=O)c1cc(COc2ccc(OC)cc2Cl)on1 (stereo not shown)	-5.59%
CC1(c2ccc(Cl)cc2Cl)NC(=O)N(CC(=O)N2CCN(C(=O)c3ccco3)CC2)C1=O (stereo not shown)	-29.1%
CC(C)CCN(C(=O)c1ccc(Br)cc1)c1c(N)n(Cc2ccccc2)c(=O)[nH]c1=O	-3.91%
Cc1cccc(-n2c(O)c(C=Nc3ccccc3)c3ccccc3c2=O)n1	-22.2%
CCN(c1ccc(NC(=O)CCc2nc3sc4c(c3c(=O)[nH]2)CCCC4)cc1)C(C)C	4.14%
Cc1ccc2c(c1)NC(c1cccs1)C1=C(CC(C)(C)CC1=O)N2 (stereo not shown)	9.63%
C/C(=N\NC(=O)c1ccccn1)C12CC3CC(CC(C3)C1)C2	14%

SMILES	hERG current change (%, negative = inhibition) at 10uM
Cc1ccc(NC(=O)Nc2ccc3c(c2)OCO3)c(Br)c1	27.9%
O=C(O)CC(C(=O)O)N1C(=O)/C(=C/c2ccc(-c3nc4ccccc4s3)o2)SC1=S (stereo not shown)	-4.46%
CC(NC(=O)CN(c1cccc(C(F)(F)F)c1)S(=O)(=O)c1ccc(Cl)c([N+](=O)[O-])c1)c1ccccc1 (stereo not shown)	21.2%
COc1ccccc1-c1cc(-c2cc(Cl)ccc2O)n[nH]1	18.8%
CCC(C)N1CC(C(=O)O)CC1=O (stereo not shown)	6.45%
NC(=O)COc1ccc(C23CC4CC(CC(C4)C2)C3)cc1	7.2%
O=C(OCC(=O)N1CCOCC1)c1ccc(N2CCOCC2)c([N+](=O)[O-])c1	19.9%
CN(CCC#N)c1ccc(/C=C(\C#N)c2ccccn2)cc1	-4.79%
CNC(=O)CCn1nc(-c2ccccc2)c2ccccc2c1=O	10.4%
COc1ccc(NC(=O)/C=C/c2ccccc2[N+](=O)[O-])c(OC)c1	4.66%
Cc1ccc(N(CC(=O)Nc2cccc(Cl)c2C)S(C)(=O)=O)cc1	4.17%
CC(C)c1csc(CN2CCC(n3nccc3NC(=O)Cc3ccccc3)CC2)n1	-0.822%
CC(NC(=O)CN(C)S(=O)(=O)c1cnc[nH]1)c1ccccc1 (stereo not shown)	-0.281%
O=Cc1cnc(N2CCCCC2)s1	28%
COc1ccc(C(=O)Nc2ccc(S(=O)(=O)NC(C)=O)cc2)cc1	7.67%
Cc1cccc(NS(=O)(=O)c2ccc3oc(=O)ccc3c2)c1C	16.7%
CC(C)COc1ccc(C(=O)N2C(=O)c3ccc(N)cc3C2=O)cc1	4.32%
C[C@@H]1NC(=O)N(CCCn2ccnc2)C1=O	7.61%
Cc1cccc(C(=O)O/N=C/c2c(N3CCOCC3)n(C)c3ccccc23)c1	-25.6%
O=C(CSc1nnnn1-c1cccc(Cl)c1)Nc1ccc2c(c1)CCC2	7.44%
COc1ccc(NC(=O)c2cn(C)c(=O)c3cc(OC)c(OC)cc23)c(OC)c1	14.2%
CCOC(=O)Cc1csc(NS(=O)(=O)Cc2ccccc2)n1	3.54%

SMILES	hERG current change (%, negative = inhibition) at 10uM
O=C(CN(Cc1ccco1)C(=O)CCC(=O)Nc1ccccn1)NCc1ccccc1	-2.38%
CCS(=O)(=O)N1Cc2ccccc2CC1C(=O)Nc1nc2ccccc2s1 (stereo not shown)	-5.72%
C/C=C\C(=O)Nc1cccc(C2=NOC3(C2)C[C@@H](C(N)=O)N(C(=O)c2ccccc2)C3)c1 (stereo partly shown)	16.8%
CCOCCCNCc1ccc(OCc2ccc(F)cc2)c(OC)c1.Cl	-33.6%
Cc1cccc(OCCN2C(=O)c3ccccc3C2=O)c1	9.51%
CN1CCN(S(=O)(=O)c2cccc(C(=O)Nc3cc(Cl)ccc3N3CCOCC3)c2)CC1	-42.3%
Cc1ccc2c(c1)S/C(=C\c1cccc[n+]1C)N2CCO.[I-]	-0.805%
Cc1cc(C)nc(SCC2COc3ccccc3O2)n1 (stereo not shown)	-8.2%
CCOC(=O)C1CCN(C(=O)c2cc3c(OC)c(OC)c(OC)cc3[nH]2)CC1	15.5%
CC(C)COc1cccc(C(=O)Nc2ccc(S(=O)(=O)N3CCOCC3)cc2)c1	-1.52%
CSc1ccc(C(=O)C2CCCN(Cc3cccnc3)C2)cc1 (stereo not shown)	-53%
CCc1ccc(C(=O)CSc2nc3cc(S(=O)(=O)N4CCOCC4)ccc3n2CC)cc1	-4.19%
COC(=O)CSc1nc(N)c(C#N)c(C(C)C)c1C#N	-8.45%
CC(C)C(NC(=O)CNC(=O)OC(C)(C)C)C(=O)NCc1ccc(Cl)cc1 (stereo not shown)	1.18%
Cc1cccc(S(=O)(=O)Nc2cccc(-c3cn4ccsc4n3)c2)c1	-4.76%
CCOc1nc(Nc2ccccc2)nc(OCC)n1	-21.7%
Cc1cc(C)nc(Nc2ccc(F)cc2)n1	8.78%
Fc1ccc(Nc2ccc(-c3ccc(F)cc3)nn2)cc1	-2.84%
CC1(C)Cc2cccc(OCC(=O)Nc3ccccc3C(F)(F)F)c2O1	-15.5%
Cc1ccc(/C=N/NS(=O)(=O)c2ccc([N+](=O)[O-])cc2)o1	26.4%
C/C(N)=C(/C#N)C(=O)COc1ccc(Cl)cc1Cl	-23.3%
COc1ccc(-c2cn(-c3ccc(C)c(C)c3)c(=S)[nH]2)cc1OC	7.67%

SMILES	hERG current change (%, negative = inhibition) at 10uM
COc1cccc(-c2nc(C#N)c(N3CCN(C(=O)c4ccco4)CC3)o2)c1	-35.1%
O=C(c1ccc(NS(=O)(=O)c2cccc3cccnc23)cc1)N1CCCCC1	12%
CCOC(=O)N1CCN(CC(O)COCCC23CC4CC(CC(C4)C2)C3)CC1.Cl (stereo not shown)	-35%
CCSC1(SCC)N=C(N)C2(C#N)C(c3ccc(F)cc3)C12C#N (stereo not shown)	-10.8%
COc1ccc(NC(=O)c2ccc(NC3CC(=O)N(c4ccc(C)cc4C)C3=O)cc2)cc1 (stereo not shown)	1.91%
CCc1ccc(NC(=O)CSC2=C(C#N)C(c3ccc4c(c3)OCO4)CC(=O)N2)cc1 (stereo not shown)	8.18%
COc1ccccc1Nc1nc(NCc2ccco2)c2ccccc2n1.Cl	-20.3%
CCOc1ccc2[nH]c(=O)c(C(c3nnnn3C3CCCCC3)N3CCN(CC)CC3)cc2c1 (stereo not shown)	-40.3%
Cc1cc(OC(C)C)c2c(-c3ccccc3)cc(=O)oc2c1	16.2%
CC(Oc1cccc(Cl)c1)C(=O)Nc1ccc(S(=O)(=O)N(C)C2CCN(C)CC2)cc1 (stereo not shown)	-24.9%
CCOC(=O)Nc1ccc2c(c1)N(C(=O)N1CCN(C)CC1)c1ccccc1S2.Cl	-46%
NNC(=O)COc1ccc(C2SCCS2)cc1	8.44%
Cc1ccc(CSc2nnc(C)c(=O)[nH]2)cc1	10.9%
CC(NC(=O)CC(c1ccccc1)c1cc(Cl)ccc1O)c1ccccc1 (stereo not shown)	-14.7%
OC(COc1ccccc1)Cn1c2ccccc2c2ccccc21 (stereo not shown)	6%
Cc1ccc(N2C(=O)CC(Sc3ccccc3C(=O)O)C2=O)cc1C (stereo not shown)	19.3%
COc1ccc(S(=O)(=O)Nc2ccc(S(=O)(=O)Nc3ccc(F)cc3)cc2)cc1C	-16.9%
COc1ccc(OCc2cnc(Cl)s2)cc1	8.9%
CC(=O)Nc1ccc(S(=O)(=O)/N=C2\C(=O)c3ccccc3C([O-])=C2n2cc[n+](-c3ccccn3)c2)cc1	2.09%
O=C(Cn1cnc2c(nnn2Cc2ccccc2F)c1=O)NCC1CCCO1 (stereo not shown)	-3.88%
CSc1nc(Oc2ccc(F)cc2)c2ccccc2n1	11.2%
O=C(c1ccc(S(=O)(=O)NCc2ccco2)cc1)N1CCN(Cc2ccccc2)CC1	2.86%
